Source: publication PMC6441497
These are yes or no findings as the source states them, for the method shown. Binding seen in cells or lysates may run through a third protein. Some entries that bind do so weakly or less than the wild type.

The chains behind the UniProt entries cited, without tags or fusion partners.
UniProt O60264: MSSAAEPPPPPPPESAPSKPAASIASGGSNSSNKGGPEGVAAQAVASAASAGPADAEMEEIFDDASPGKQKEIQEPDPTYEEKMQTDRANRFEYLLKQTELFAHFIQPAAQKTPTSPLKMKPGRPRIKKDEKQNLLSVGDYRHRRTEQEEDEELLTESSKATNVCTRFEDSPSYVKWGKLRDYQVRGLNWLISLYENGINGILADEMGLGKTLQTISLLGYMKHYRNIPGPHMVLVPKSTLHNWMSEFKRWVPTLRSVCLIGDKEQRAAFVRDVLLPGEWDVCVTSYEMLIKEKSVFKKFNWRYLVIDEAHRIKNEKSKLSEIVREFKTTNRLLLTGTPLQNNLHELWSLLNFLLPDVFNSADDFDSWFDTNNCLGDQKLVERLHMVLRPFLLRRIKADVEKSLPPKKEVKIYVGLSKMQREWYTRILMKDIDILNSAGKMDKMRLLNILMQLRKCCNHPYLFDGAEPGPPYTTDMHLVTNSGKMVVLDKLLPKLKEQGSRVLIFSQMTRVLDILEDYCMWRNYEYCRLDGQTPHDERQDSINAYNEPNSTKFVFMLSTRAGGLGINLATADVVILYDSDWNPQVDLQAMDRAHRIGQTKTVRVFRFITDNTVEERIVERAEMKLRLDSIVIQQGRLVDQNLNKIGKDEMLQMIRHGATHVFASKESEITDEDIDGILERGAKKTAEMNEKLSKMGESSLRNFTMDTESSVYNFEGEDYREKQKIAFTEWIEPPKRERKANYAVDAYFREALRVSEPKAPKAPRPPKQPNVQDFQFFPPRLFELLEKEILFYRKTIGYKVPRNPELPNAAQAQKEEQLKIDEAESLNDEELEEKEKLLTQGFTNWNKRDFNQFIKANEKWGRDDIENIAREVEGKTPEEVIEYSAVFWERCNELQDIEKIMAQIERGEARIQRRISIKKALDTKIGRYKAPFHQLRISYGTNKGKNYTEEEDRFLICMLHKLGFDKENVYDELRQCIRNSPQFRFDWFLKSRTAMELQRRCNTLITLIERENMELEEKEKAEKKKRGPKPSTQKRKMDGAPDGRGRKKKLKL
UniProt Q9ULG1: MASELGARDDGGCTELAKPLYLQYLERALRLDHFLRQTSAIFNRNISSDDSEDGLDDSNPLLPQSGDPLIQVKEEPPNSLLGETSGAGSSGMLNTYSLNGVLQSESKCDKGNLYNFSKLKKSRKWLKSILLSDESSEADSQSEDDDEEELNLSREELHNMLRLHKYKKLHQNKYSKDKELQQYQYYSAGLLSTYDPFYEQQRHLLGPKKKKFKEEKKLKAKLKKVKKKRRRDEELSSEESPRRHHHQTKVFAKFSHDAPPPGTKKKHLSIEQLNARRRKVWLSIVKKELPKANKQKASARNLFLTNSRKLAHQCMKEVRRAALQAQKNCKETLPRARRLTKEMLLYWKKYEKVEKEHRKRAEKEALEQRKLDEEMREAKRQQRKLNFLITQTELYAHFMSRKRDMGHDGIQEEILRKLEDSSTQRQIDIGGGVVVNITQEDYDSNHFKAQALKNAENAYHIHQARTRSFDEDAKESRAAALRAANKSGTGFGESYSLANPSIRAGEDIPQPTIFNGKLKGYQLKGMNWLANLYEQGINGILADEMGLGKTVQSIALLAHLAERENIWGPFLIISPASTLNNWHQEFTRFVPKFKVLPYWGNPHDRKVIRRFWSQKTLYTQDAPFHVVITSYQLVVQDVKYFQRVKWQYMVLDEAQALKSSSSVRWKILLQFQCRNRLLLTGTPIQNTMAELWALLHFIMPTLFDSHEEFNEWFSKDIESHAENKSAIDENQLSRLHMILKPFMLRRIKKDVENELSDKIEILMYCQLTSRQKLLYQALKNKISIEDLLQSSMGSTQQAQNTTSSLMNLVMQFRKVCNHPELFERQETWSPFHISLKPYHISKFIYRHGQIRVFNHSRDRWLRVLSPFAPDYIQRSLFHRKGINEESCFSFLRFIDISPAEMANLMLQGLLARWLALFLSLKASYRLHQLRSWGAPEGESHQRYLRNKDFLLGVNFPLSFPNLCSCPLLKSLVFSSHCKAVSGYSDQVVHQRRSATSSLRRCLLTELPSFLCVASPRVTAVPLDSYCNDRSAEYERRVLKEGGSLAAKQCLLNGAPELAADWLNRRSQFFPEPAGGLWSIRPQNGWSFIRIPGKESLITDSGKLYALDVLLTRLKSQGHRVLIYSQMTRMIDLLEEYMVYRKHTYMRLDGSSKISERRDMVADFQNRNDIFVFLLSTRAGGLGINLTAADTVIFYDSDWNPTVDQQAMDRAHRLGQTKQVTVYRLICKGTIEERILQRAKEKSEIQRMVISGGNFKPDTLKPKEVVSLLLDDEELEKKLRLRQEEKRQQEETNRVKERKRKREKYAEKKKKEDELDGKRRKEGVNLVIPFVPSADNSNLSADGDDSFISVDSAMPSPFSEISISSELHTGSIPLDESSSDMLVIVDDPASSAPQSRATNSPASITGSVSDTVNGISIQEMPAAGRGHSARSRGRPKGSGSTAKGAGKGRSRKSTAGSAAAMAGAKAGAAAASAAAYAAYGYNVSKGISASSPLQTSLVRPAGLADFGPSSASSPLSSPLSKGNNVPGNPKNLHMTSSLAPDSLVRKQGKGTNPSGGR
UniProt Q14839: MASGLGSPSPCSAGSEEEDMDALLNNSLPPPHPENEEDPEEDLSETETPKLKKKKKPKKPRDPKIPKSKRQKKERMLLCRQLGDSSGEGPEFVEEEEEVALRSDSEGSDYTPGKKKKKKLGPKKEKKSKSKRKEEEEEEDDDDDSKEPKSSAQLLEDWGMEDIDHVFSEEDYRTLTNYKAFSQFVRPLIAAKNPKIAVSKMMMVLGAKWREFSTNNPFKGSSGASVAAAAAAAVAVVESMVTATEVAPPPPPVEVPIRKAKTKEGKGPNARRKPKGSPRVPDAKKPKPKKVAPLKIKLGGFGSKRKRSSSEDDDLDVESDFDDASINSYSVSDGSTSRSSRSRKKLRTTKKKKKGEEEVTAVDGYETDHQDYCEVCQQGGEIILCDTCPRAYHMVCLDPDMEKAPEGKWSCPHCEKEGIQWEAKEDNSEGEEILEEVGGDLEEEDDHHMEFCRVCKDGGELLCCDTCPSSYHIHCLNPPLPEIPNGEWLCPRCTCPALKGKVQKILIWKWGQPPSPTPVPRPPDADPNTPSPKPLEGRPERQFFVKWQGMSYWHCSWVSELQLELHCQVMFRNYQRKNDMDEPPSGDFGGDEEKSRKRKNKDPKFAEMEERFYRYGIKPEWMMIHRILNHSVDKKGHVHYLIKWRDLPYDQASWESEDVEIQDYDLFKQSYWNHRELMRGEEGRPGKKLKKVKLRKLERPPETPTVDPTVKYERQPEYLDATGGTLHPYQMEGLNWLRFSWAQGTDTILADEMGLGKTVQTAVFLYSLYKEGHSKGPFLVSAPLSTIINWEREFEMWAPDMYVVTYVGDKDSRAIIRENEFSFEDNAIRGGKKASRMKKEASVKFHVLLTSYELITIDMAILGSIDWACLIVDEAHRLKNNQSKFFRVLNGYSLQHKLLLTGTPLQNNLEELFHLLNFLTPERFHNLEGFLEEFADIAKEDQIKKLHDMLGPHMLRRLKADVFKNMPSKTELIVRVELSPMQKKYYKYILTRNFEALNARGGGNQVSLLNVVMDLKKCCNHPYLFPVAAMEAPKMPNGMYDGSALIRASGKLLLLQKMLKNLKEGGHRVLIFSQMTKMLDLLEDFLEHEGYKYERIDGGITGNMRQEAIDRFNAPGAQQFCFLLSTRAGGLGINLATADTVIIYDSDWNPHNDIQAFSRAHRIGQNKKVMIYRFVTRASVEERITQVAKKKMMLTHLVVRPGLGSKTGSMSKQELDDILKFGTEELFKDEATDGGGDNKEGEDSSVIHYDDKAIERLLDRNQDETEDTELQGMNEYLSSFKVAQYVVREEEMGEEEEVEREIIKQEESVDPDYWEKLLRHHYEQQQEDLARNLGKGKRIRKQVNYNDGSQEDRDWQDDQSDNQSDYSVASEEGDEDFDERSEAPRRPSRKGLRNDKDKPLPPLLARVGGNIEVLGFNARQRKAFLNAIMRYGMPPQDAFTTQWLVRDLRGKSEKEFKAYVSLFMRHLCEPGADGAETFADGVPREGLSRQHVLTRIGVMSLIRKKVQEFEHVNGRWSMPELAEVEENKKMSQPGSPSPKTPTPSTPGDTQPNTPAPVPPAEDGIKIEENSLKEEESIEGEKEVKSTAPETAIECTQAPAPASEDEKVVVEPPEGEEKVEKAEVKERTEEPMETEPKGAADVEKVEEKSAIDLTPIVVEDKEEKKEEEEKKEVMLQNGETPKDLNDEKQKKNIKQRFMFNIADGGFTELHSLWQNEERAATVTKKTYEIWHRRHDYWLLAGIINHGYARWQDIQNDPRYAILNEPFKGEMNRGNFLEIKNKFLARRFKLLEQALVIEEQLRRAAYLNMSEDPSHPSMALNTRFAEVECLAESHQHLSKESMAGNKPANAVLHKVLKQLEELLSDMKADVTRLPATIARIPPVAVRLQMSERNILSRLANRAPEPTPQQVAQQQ

Key:
[1] = target: FLAG- and tandem Strep-tagged BZLF1 bZIP domain (aa 175–236), expressed from p5694 in Raji cells (EBV) (UniProt P03206); assay: co-IP; Lysates of doxycycline-induced Raji cells (overnight) treated with benzonase and DNase I; Strep-tagged BZLF1 or bZIP captured on streptavidin / Strep-Tactin beads; endogenous remodelers detected by Western blot
[2] = target: FLAG- and tandem Strep-tagged full-length BZLF1 (aa 1–245), expressed from p5693 in Raji cells (EBV) (UniProt P03206); assay: as above
[3] = target: GFP-tagged chromatin remodeler ATPase subunit SNF2h (UniProt O60264); assay: co-IP; HEK293 cells co-transfected with BZLF1 variants and GFP-tagged SNF2h or INO80; lysates treated with benzonase and DNase I; GFP-tagged remodelers precipitated with GFP-binder beads (GFP-Trap_A); BZLF1 detected by Western blot with the BZ1 antibody
[4] = target: GFP-tagged chromatin remodeler ATPase subunit INO80 (UniProt Q9ULG1); assay: as above

With “SNF2h, catalytic ATPase subunit of ISWI remodelers (encoded by SMARCA5), endogenous in Raji cells (from UniProt O60264 1-1052)” the binding [1] was “binds” and the binding [2] was “binds”.
With “BZLF1 aa 149–245 (ZΔTAD), FLAG- and tandem Strep-tagged, expressed in HEK293 cells (from UniProt P03206 149-245) (domain or fragment)” the binding [3] was “binds”.
For “BZLF1 aa 175–236, FLAG- and tandem Strep-tagged, expressed in HEK293 cells (from UniProt P03206 175-236) (domain or fragment)”, the binding [3] was “binds”.
“BZLF1 aa 1–245, FLAG- and tandem Strep-tagged, expressed in HEK293 cells (from UniProt P03206 1-245)” was tested, and the binding [4] was “binds” and the binding [3] was “binds”.
For “CHD4, endogenous in Raji cells (from UniProt Q14839 1-1912)”, the binding [2] was “no binding”.
In the case of “BZLF1 aa 1–236, FLAG- and tandem Strep-tagged, expressed in HEK293 cells (from UniProt P03206 1-236) (domain or fragment)”, the binding [3] is reported as “binds”.
For “BZLF1 aa 175–245, expressed in HEK293 cells (from UniProt P03206 175-245) (domain or fragment)”, the binding [3] was “binds”.
